Some of the results follow. The full chains were built here from the parent and the listed change. Values near 0.05 are background.
B1: TEV protease; numbered along this chain (parent)
chain: MGESLFKGPRDYNPISSSICHLTNESDGHTTSLYGIGFGPFIITNKHLFRRNNGTLVVQSLHGVFKVKDTTTLQQHLVDGRDMIIIRMPKDFPPFPQKLKFREPQREERICLVTTNFQTKSMSSMVSDTSCTFPSGDGIFWKHWIQTKDGQCGSPLVSTRDGFIVGIHSASNFTNTNNYFTSVPKNFMELLTNQEAQQWVSGWRLNADSVLWGGHKVFMVKPEEPFQPVKEATQL

Variants of: B1
Experiment: raw area under fraction-flipped curve 0-4 h after induction (AUC4h, not background-subtracted), DNA-recorder readout of cleavage of the substrate (dimensionless); higher = more cleavage of the substrate by the protease variant
Conditions: temperature: 34 °C; time window: 0-4 h after rhamnose induction
Procedure: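 In vivo DNA recorder in E. coli TOP10(DE3) ΔrhaA at 34 °C. Each TEVp single-site mutant (parent TEVp 0) is paired with a single-site variant of the 7-mer TEVs (canonical ENLYFQ|S). The substrate sits between flexible linkers in a Bxb1-sfGFP-TEVs-SsrA fusion, so cleavage stabilises Bxb1 and speeds flipping of a recombination array, read by NGS. The value is the raw area under the fraction-flipped curve over 0-4 h after rhamnose induction (AUC4h), with ≥20 reads per time point. It is not background-subtracted; inactive controls average about 0.047.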
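Further: Bxb1 expression induced with 0.2% (w/v) L-rhamnose at OD600 near 0.5, cultures sampled hourly, flipped fraction per protease–substrate barcode pair counted by paired-end Illumina sequencing.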

| Variant | area with substrate CNLYFQS | area with substrate DNLYFQS | area with substrate FNLYFQS | area with substrate GNLYFQS | area with substrate INLYFQS | area with substrate KNLYFQS | area with substrate LNLYFQS | area with substrate NNLYFQS | area with substrate PNLYFQS | area with substrate SNLYFQS | area with substrate TNLYFQS | area with substrate WNLYFQS | area with substrate YNLYFQS | area with substrate HNLYFQS | area with substrate MNLYFQS | area with substrate RNLYFQS | area with substrate VNLYFQS | area with substrate QNLYFQS |
| --- | --- | --- | --- | --- | --- | --- | --- | --- | --- | --- | --- | --- | --- | --- | --- | --- | --- | --- |
| L22C | 0.0589 | 0.0715 | 0.0644 | 0.0903 | 0.061 | 0.0645 | 0.0691 | 0.0589 | 0.0666 | 0.0597 | 0.0571 | 0.0528 | 0.0567 |  |  |  |  |  |
| K98P | 0.0582 | 0.0839 | 0.0695 |  | 0.0622 | 0.0785 | 0.0616 | 0.0512 | 0.0642 | 0.0662 | 0.0513 | 0.0649 | 0.055 | 0.0579 | 0.0663 | 0.0831 | 0.0744 |  |
| Y12C | 0.0671 | 0.089 |  | 0.0797 | 0.0688 | 0.0752 | 0.0718 |  | 0.0635 | 0.0682 | 0.0613 |  | 0.0544 | 0.0566 | 0.0908 |  | 0.076 |  |
| A207T | 0.0832 | 0.0595 |  | 0.0612 | 0.0749 | 0.0896 | 0.0488 |  | 0.07 | 0.0691 | 0.0744 | 0.0677 | 0.0357 | 0.0698 |  | 0.0565 |  |  |
| K66D | 0.0617 | 0.0756 |  | 0.106 | 0.0577 | 0.0657 | 0.0764 | 0.0441 | 0.0529 |  | 0.0694 | 0.0551 |  | 0.0517 | 0.0691 |  | 0.0684 |  |
| T132E | 0.0479 | 0.0494 | 0.0471 | 0.0463 | 0.047 | 0.0406 |  | 0.0727 | 0.033 |  |  | 0.0579 |  | 0.0492 |  |  |  |  |
| T132C | 0.0697 | 0.079 |  | 0.053 | 0.0672 | 0.0759 | 0.0699 |  | 0.064 | 0.0549 | 0.0656 | 0.0576 |  | 0.0564 |  |  |  |  |
| N175G | 0.0656 | 0.0308 | 0.0576 |  | 0.0569 |  |  |  | 0.0728 | 0.0564 |  | 0.065 | 0.0474 | 0.072 |  |  | 0.0535 | 0.0393 |
| H143G | 0.0739 | 0.0735 |  |  |  | 0.0679 |  |  |  | 0.0794 |  | 0.0625 | 0.0421 |  | 0.0492 |  | 0.0521 | 0.0641 |
| F187Y | 0.0653 | 0.0614 | 0.0469 |  | 0.0535 | 0.0727 |  | 0.0669 | 0.0681 | 0.0728 | 0.0472 | 0.0591 | 0.0615 | 0.059 |  |  |  | 0.057 |
| I164G | 0.0576 | 0.0674 | 0.048 | 0.0556 |  | 0.0529 | 0.0542 |  |  | 0.0641 | 0.0537 | 0.053 | 0.0447 | 0.0543 | 0.0487 |  |  |  |
| S121K | 0.0821 | 0.0938 | 0.068 |  | 0.0437 |  | 0.054 | 0.0644 | 0.0753 |  | 0.0702 | 0.0386 | 0.0512 | 0.0594 | 0.0659 |  |  |  |
| I167V | 0.0648 | 0.0543 |  | 0.0604 | 0.0747 | 0.0768 | 0.0524 |  | 0.0641 | 0.0581 | 0.0986 | 0.0419 | 0.0591 | 0.0678 |  |  | 0.0579 |  |
| L99R | 0.0874 | 0.0553 |  | 0.0705 | 0.062 | 0.057 | 0.0676 |  | 0.0717 | 0.0834 | 0.0885 | 0.064 | 0.0764 | 0.0695 | 0.068 |  | 0.0594 |  |
| V157E | 0.0526 | 0.0718 | 0.0555 | 0.0567 | 0.0629 | 0.0539 | 0.0487 |  | 0.0372 | 0.0457 | 0.0539 | 0.0483 | 0.0439 | 0.0603 | 0.0541 | 0.0109 |  |  |
| E195A | 0.0652 | 0.0867 | 0.0617 | 0.0632 | 0.0488 |  | 0.0582 | 0.1 | 0.0622 | 0.0715 | 0.0806 | 0.0626 |  | 0.0521 |  | 0.0685 |  |  |
| F49Y | 0.0651 | 0.0641 | 0.0558 |  |  | 0.0563 |  | 0.0838 | 0.0611 |  | 0.0608 | 0.0589 | 0.0648 | 0.0559 | 0.0364 | 0.055 |  | 0.0858 |
| D149T | 0.0556 | 0.0638 | 0.0536 | 0.0445 |  | 0.0621 | 0.0545 | 0.0543 | 0.059 |  | 0.0534 | 0.0585 |  | 0.0535 |  | 0.0659 | 0.0645 |  |
| P14H | 0.0673 | 0.083 |  | 0.0866 | 0.0649 | 0.0678 | 0.0715 | 0.0636 | 0.0639 | 0.0659 | 0.0627 | 0.0672 | 0.0584 |  | 0.0633 |  |  | 0.0751 |
| S209D | 0.0671 | 0.0737 |  |  | 0.0552 |  |  |  | 0.0622 |  | 0.074 | 0.0613 | 0.0492 |  |  |  |  |  |
| W199P | 0.057 | 0.0598 | 0.0537 | 0.0517 | 0.0524 | 0.0702 | 0.0674 |  | 0.0638 | 0.0463 | 0.0597 | 0.0594 | 0.0601 | 0.0477 | 0.0607 |  |  |  |
| L191P | 0.0429 | 0.0563 |  | 0.0572 | 0.0459 |  |  |  | 0.0378 |  | 0.059 | 0.0498 | 0.0668 |  | 0.0494 |  | 0.0705 |  |
| K148C | 0.0944 | 0.0656 |  | 0.0557 | 0.0482 | 0.0706 | 0.0656 |  | 0.0689 |  | 0.0582 | 0.0495 | 0.0622 | 0.0555 | 0.0565 |  | 0.0692 |  |
| N53D | 0.0787 | 0.0917 |  | 0.0603 | 0.0417 | 0.098 |  |  | 0.0703 | 0.0533 | 0.0603 | 0.0575 | 0.0691 |  |  | 0.0705 |  | 0.0552 |
| S158N | 0.059 | 0.075 | 0.055 | 0.043 | 0.0617 | 0.041 |  | 0.0638 | 0.0559 | 0.0315 | 0.067 | 0.0516 | 0.0505 | 0.0708 | 0.0574 |  | 0.0488 |  |
| F226Q | 0.12 | 0.137 | 0.047 | 0.0838 |  | 0.0822 | 0.0673 | 0.0583 |  | 0.0678 | 0.0603 | 0.0565 | 0.0768 | 0.0598 | 0.0642 |  |  | 0.0596 |
| P184F | 0.0465 | 0.055 | 0.0284 |  | 0.0568 | 0.0449 |  | 0.0552 | 0.0696 | 0.0952 | 0.056 | 0.0508 | 0.0494 | 0.0608 | 0.0554 |  | 0.0616 |  |
| T233E | 0.0576 | 0.0953 |  |  | 0.0652 |  | 0.0812 | 0.0495 | 0.0654 |  |  | 0.055 |  |  |  |  |  | 0.0745 |

Reference: the supplement of paper PMC12217912
